# The supplement of paper PMC11417369
# This is one part of the list.
# Tested on: PF3D7_0420300 AP2 domain 1 (GST-tagged)
# Assay: gcPBM binding intensity (ln(normalized median fluorescence intensity)); higher = stronger DNA binding
# Method in brief: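 GST-tagged P. falciparum DNA-binding domains produced in E. coli were incubated for 1 h on an Agilent 4 × 180k array of primer-extended double-stranded 36-bp intergenic genomic probes with negative controls. Binding intensity is the highest Masliner-normalised natural-log median intensity across replicate spots of either probe orientation, with bound protein detected by Alexa488 anti-GST antibody at 488 nm.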
row,Sequence,gcPBM binding intensity (ln)
1,ATATGGAATAATACGCGTACACACATATATATATTA [XGTACX_site307],9.62
2,TTTATATCATTACAAGTGCATATCATCATAAATTCT [GTGCAC_site9878],9.05
3,TCTTGATTATATAGTACTACACATTATAAAAAAATT [XGTACX_site2465],9.06
4,TATATATAAATATATGTGCACTTTTTATATTTATAT,9.22
5,AATTTTTTTTTAATCATGCACACTGTTAAAAGAATA [CACACA_site1240],9.06
6,AAAAAATAGAATATAAAAATAAAGGAATTAAATTAA [XGTACX_negctrl_site420],9.19
7,TTTTAAAAATTAAGTGCATGTCCTTATAAAAAAAAA [TGCATGCA_site845],8.81
8,TTCATATATTTAGGACGTACTTTTATATTACTATAT [XGTACX_site6456],9.38
9,AATGATCATAAATACACACACACAAAAAAAAAAAAA [CACACA_site6072],9.94
10,TATTAAAAAAATGTATGTACATATATAAATTTTTTT [XGTACX_site1094],8.98
11,TTTCTCCCATTTTTTAGTACACAAAATATATATGTA [XGTACX_site7218],9.31
12,GATGGATTTATTTAAAGTACATATTTAAAAAACTGT [XGTACX_site7567],9.08
13,AAAGTAAAAGAAAGCACACACACATGTATATATGTA [CACACA_site3857],9.8
14,AAAAAAAAAAAATATACACACACATATATATATATA [CACACA_site9123],9.65
15,AACAACAATTTCGTCATACACACATTCAGAATATAT [CACACA_site2371],9.6
16,TATATATATATATACACACACACCCTAAAAATATAT [CACACA_site1611],9.97
17,AAAATTACTATATGAACACACATGATTAGATATATG [CACACA_site3083],9.48
18,TGAAAGAATTAATTTTGTACATATAAAAATTTTATT [XGTACX_site8500],8.87
19,TTTTTATTTTTAAAGGCACACACATTTTTATTTTTA [CACACA_site8624],9.54
20,AATAAATAAATAATATAATGAAATTATAAAATGTGG [TGCATGCA_negctrl_site385],9.41
21,TATTTGTGCCAAAAATGAAAAAGTTTGTATAAAACC [CACACA_negctrl_site1406],9.02
22,AAATGAAATTTGTATACACACAAATATATTTATATA [CACACA_site6525],9.2

row,Sequence,gcPBM binding intensity (ln)
1,AAGAAAAAAAATATATATGTATATATTATTTTAACA [TGCATGCA_negctrl_site534],9.07
2,ATATTTTTTGCTATTACACACAAGGGATTATTATTT [CACACA_site7776],9.85
3,TAATAATAGTCTAATACATGCATCGATAACGGAACT [TGCATGCA_site98],9.31
4,ATGTTAATAACTTGTGGTACTGTTATAATTTAGTAA [XGTACX_site2114],9.3
5,ATATAAGTGTATCTAACACACAAATATGTAAAAATG [CACACA_site7006],9.48
6,ATATATCTACTGTGTTGTACTGTTAATATTTGAATA [XGTACX_site1931],9.46
7,TATATACACATATATACACACACATATATATATATA [CACACA_site9127],9.79
8,CAGGCGTGAAATATACGTACACACATTATTTATATT [XGTACX_site5337],9.56
9,ATATAAATTATTTACACACAAACATTTATACTTTTA [CACACA_site3448],9.56
10,TTTTGTTACGGCAAGGAAGTTAAGCATAAATGAATG [GTGCAC_negctrl_site173],9.24
11,AATATATGTATATATTTTTTTTTTTCCCTTACAAAT [GTGCAC_negctrl_site428],9.07
12,GTTAAAATTGGGGACGCATGTTCCTTTCCTTTTTTT [TGCATGCA_site1002],9.08
13,TTATAAATGTAACGATGTACTTTTAAAAGTTTCCTT [XGTACX_site109],8.97
14,GGAATGGTACATGATACACACACGCACATATATATA [CACACA_site5825],9.86
15,TATATTAAACAATATACACACATTAATGTATACATA [CACACA_site2755],9.46
16,GACAAAAAATTAAAATAAAATAATAATATAATAAAA [GTGCAC_negctrl_site234],9.19
17,ATATAATAGTTATATTGTACATAAATTATACACCTT [XGTACX_site628],9.22
18,TATAAACACCCATATAAACACACATATAAACCAACA [CACACA_site8790],9.79
19,ATACGCACACATATATGTACATATTGTATATATATA [XGTACX_site3962],9.52
20,ACAATTTACACTTAAACACACAAAAAAAAATTATAT [CACACA_site2065],9.66
21,TGTTTTATTTTATTAGTGCATTTTTATTTATAATAG [GTGCAC_site9453],9.38
22,GCATCGATCAAACATACACACATGGTTAATAAAAAT [CACACA_site8651],9.57
